# According to publication PMC4336329 (PLoS ONE, 2015):
# In all, about 310,000 compounds went through this assay and about 2,200 (0.71%) showed an effect of 50% or more. Effects have a minus sign here. Some of the results follow.
# Molecular target: human ether-à-go-go-related gene (hERG) potassium channel (human, UniProt Q12809)
# Test: primary screen, population patch clamp on CHO cells stably expressing hERG
# Chain of human ether-à-go-go-related gene (hERG) potassium channel (Q12809 whole entry, looked up): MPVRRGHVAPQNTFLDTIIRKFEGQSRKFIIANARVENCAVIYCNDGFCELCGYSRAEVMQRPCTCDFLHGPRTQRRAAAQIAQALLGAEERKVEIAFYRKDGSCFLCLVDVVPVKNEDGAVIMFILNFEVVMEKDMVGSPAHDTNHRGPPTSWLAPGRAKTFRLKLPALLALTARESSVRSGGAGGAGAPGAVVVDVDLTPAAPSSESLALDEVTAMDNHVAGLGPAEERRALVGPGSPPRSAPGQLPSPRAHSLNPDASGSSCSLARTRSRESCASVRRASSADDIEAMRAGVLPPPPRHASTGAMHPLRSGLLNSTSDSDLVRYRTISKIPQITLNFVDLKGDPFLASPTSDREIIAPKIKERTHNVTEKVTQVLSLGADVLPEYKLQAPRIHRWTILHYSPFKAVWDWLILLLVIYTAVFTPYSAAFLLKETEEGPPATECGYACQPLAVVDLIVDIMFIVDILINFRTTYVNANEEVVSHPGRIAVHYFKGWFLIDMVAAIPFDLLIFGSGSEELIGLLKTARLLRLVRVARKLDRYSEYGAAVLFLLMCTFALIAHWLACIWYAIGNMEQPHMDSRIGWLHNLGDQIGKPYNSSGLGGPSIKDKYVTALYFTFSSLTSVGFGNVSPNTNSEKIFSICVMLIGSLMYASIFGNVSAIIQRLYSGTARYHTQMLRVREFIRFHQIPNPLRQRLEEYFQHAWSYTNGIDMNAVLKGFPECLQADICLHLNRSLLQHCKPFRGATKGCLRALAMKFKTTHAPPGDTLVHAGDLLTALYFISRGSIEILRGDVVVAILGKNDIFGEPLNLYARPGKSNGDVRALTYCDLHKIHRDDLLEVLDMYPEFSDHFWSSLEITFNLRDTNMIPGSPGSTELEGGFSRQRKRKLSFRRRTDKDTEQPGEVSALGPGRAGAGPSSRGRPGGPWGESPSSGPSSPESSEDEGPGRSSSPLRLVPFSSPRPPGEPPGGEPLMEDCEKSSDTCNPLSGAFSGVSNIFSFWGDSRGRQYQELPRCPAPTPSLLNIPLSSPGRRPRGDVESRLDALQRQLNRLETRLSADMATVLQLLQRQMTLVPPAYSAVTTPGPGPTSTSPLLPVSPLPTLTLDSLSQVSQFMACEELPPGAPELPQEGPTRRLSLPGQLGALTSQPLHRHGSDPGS
row,SMILES,"hERG current change (%, negative = inhibition) at 1uM"
1,Cc1ccc(S(=O)(=O)N2CCCCC2)cc1NC(=O)Cn1c(=O)cnc2ccccc21,5.94%
2,Nc1cc2ccccc2oc1=O,11.2%
3,CCOCCCNC(=O)CN1C(=O)COc2ccc(S(=O)(=O)N3CCCCCC3)cc21,16.9%
4,Cc1ccsc1C1C(C#N)=C(N)OC2=C1C(=O)CC(C)C2 (stereo not drawn),-6.03%
5,NC(=O)C1CCN(CCC(=O)Nc2ccc3c(c2)CCC3)CC1,-7.54%
6,Cc1cc(S(=O)(=O)N2CCCC2)ccc1OCC(=O)NCc1ccccc1,9.71%
7,Cc1ccc2c(c1)oc(=O)n2CC(=O)c1ccccc1,8.61%
8,Cc1ccc(NC(=O)NCc2ccc3c(c2)OCO3)cc1C,6.54%
9,COc1ccccc1OCCCC(=O)Nc1ccc(N2CCOCC2)cc1,8.48%
10,CCOC(=O)c1c(C)c(C(=O)NCCc2ccccc2)c(C)n1C,3.8%
11,O=C(/C=C/c1ccc(OC(F)F)cc1)OCC(=O)N1CCc2ccccc21,16.1%
12,CC(C)/C=N/Nc1nc(-c2ccc(Br)cc2)cs1,1.05%
13,CC1(c2ccc3ccccc3c2)NC(=O)N(CC(=O)NCC(C)(C)N2CCOCC2)C1=O (stereo not drawn),5.4%
14,CC(=O)N1CCOc2ccc(S(=O)(=O)NCC3CCC(C(=O)Nc4ncccc4C)CC3)cc21 (stereo not drawn),4.24%
15,O=C(CCl)Nc1ccc(Oc2cnc3ccccc3n2)cc1,8.33%
16,COc1ccc(C2C(C(=O)OC(C)C)=C(C)N=c3s/c(=C\c4cccs4)c(=O)n32)cc1 (stereo not drawn),9.39%
17,COc1ccc(-c2nnc(-c3cccnc3)o2)cc1,9.22%
18,O=C(COC(=O)C1CC1)Nc1ccccc1Sc1ccccc1,5.86%
19,N#CC(=NCc1cccnc1)C1=C(O)c2ccccc2C1=O,10.2%
20,O=C(NNS(=O)(=O)c1ccc2ccccc2c1)C1CCN(Cc2ccccc2)CC1,8.72%
21,COc1ccc(NS(=O)(=O)NC(=O)c2cn(C)c3ccccc23)cc1,11%
22,CCc1nnc(NC(=O)C2CC(=O)N(c3ccc4c(c3)OCCO4)C2)s1 (stereo not drawn),7.52%
23,Cc1ccc2c(c1)NC(=O)C(CC(=O)Nc1ccc(CN3CCC(C)CC3)cc1)O2 (stereo not drawn),8.91%

row,SMILES,"hERG current change (%, negative = inhibition) at 1uM"
1,Cc1ncc([N+](=O)[O-])n1CC(O)CCl (stereo not drawn),6.29%
2,O=[N+]([O-])c1c(NCCO)cc(Sc2nc3ccccc3s2)c2nonc12,21.7%
3,CCCCN1C(N)=NC[C@@H]1CCCCN,15.5%
4,Cc1noc(C)c1C(=O)Nc1nc2ccc(S(C)(=O)=O)cc2s1,11.4%
5,COC(=O)c1ccc(C2c3[nH]c4ccccc4c3C[C@H]3C(=O)N(C)CC(=O)N23)cc1 (stereo partly drawn),12.1%
6,Cc1cccc(-n2cc3c(=O)n(C)c(=O)n(C)c3c2)c1,12.4%
7,CSc1ncccc1C(=O)Nc1ccc2nc(C)sc2c1,6.94%
8,COC(=O)c1ccc(NC(=S)Nc2ccc(O)cc2)cc1,5.34%
9,C/C(Cl)=C\Cn1c(O)c(N=NC(N)=S)c2ccccc21,-8.32%
10,CCN(CC)CCNC(=O)c1ccc(NC(=O)Cc2ccccc2F)cc1,7.05%
11,N/C(=N\N=C/c1ccc(-c2ccc(O)c(C(=O)O)c2)o1)N[N+](=O)[O-],3.87%
12,CCNc1oc(COc2ccccc2F)nc1C#N,15.3%
13,CCC(NC(=O)NCc1cccnc1)(C(F)(F)F)C(F)(F)F,8.71%
14,O=C(CCS(=O)(=O)c1ccc(Br)s1)NCc1cccs1,-0.645%
15,CCOC(=O)C1=C(C)N=c2s/c(=C\c3ccc(C(=O)O)cc3)c(=O)n2C1c1ccc(F)cc1 (stereo not drawn),2.3%
16,CN1CC(=O)N(CC(=O)Nc2cccc(S(=O)(=O)N3CCOCC3)c2)C1=O,9.79%
17,Cc1nnsc1C(=O)NC1CCCc2c1cnn2-c1ccc(C(C)(C)C)cc1 (stereo not drawn),8.39%
18,Cc1cc(NC(=O)CSc2nccn2-c2ccc(Cl)cc2)no1,1.63%
19,COc1ccc(-n2c(=O)c3ccccc3n(CC(=O)Nc3cccc(OC)c3)c2=O)cc1,16.3%
20,FC(F)(F)c1nnc2ccc(-n3ccnc3)nn12,13.3%
21,CC(CNC(=O)CCCn1ncn2c(cc3occc32)c1=O)c1ccccc1 (stereo not drawn),0.18%
22,COCCSc1nnc(NC(=O)CCS(=O)(=O)c2ccccc2)s1,18.4%
